# Reference: PMC4336329 (PLoS ONE, 2015)
# Hit rate of the full screen: of about 310,000 compounds, about 2,200 (0.71%) showed an effect of 50% or more. Effects have a minus sign here. Some of the results follow.
# Molecular target: human ether-à-go-go-related gene (hERG) potassium channel (human, UniProt Q12809)
# Assay: primary screen, population patch clamp on CHO cells stably expressing hERG
# Chain of human ether-à-go-go-related gene (hERG) potassium channel (Q12809 whole entry, looked up): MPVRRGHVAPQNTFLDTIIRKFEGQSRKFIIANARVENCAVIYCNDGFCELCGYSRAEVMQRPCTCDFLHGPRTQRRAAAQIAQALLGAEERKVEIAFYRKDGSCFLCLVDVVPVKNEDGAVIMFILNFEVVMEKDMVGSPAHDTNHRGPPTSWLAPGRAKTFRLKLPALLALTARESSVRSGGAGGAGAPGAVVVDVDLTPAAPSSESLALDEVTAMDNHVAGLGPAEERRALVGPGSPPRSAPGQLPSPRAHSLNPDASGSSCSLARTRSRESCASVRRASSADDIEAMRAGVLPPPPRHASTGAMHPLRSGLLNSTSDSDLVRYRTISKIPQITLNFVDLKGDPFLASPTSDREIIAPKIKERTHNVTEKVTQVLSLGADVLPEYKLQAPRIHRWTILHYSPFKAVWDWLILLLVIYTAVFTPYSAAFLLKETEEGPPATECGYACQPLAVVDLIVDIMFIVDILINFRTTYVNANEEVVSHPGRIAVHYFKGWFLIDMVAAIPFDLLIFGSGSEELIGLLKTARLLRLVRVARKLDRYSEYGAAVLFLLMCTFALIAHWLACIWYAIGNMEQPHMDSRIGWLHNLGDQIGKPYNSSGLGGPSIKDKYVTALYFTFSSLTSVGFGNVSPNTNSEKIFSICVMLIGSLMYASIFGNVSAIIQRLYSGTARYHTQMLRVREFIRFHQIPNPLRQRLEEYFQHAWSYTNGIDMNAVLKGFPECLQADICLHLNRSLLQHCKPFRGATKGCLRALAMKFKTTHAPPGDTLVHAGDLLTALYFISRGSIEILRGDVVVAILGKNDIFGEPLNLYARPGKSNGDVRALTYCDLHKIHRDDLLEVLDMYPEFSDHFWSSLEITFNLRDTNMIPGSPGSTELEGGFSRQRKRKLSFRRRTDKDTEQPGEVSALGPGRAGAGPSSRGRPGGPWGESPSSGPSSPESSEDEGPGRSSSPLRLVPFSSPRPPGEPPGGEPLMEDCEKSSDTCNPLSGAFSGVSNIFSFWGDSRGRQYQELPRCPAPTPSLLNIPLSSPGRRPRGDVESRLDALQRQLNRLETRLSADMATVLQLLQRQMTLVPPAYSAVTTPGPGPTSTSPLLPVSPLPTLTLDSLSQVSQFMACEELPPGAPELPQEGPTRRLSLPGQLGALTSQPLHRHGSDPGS
row,SMILES,"hERG current change (%, negative = inhibition) at 1uM [%]"
1,Cc1ccc(-c2nc(NC(=O)c3cc(C(C)(C)C)nn3C)sc2C)cc1Cl,11.1
2,CC1(C)C[C@H]2C3=CCC4[C@@]5(C)CC[C@H](O)[C@](C)(CO)C5CC[C@@]4(C)[C@]3(C)C[C@H]3O[C@@H]1[C@H](O)[C@]32CO (stereo partly shown),15.3
3,CCOC(=O)C1C(=O)Nc2nc(C)nn2C1c1ccccc1 (stereo not shown),16.2
4,O=C(CCNC(=O)c1ccccc1Cl)NN1C(=O)NC2(CCCCC2)C1=O,-4.68
5,CCCCC1=CC2=C(c3ccco3)C(=O)C(C)(OC(=O)c3ccc(OC)cc3)C(=O)C2=CN1Cc1ccccc1 (stereo not shown),4.37
6,Cc1cc(Cl)c(S(=O)(=O)N2CCN(c3ccc(F)cc3)CC2)cc1OCC(=O)NC1CCCCC1,7.64
7,CCn1c(SCC(=O)N(C)C2CCS(=O)(=O)C2)nnc1-c1ccccc1 (stereo not shown),13
8,Nc1c(C(=O)NCc2ccccc2)sc2nc(N3CCOCC3)c3c(c12)CCCC3,13.3
9,CCOc1ccccc1C(=O)NCC(=O)Nc1ccc(-c2ccccc2)cc1,6.95
10,O=C(NC1CCCCC1)C(c1ccc2ncccc2c1)N(Cc1cccs1)C(=O)c1cccs1 (stereo not shown),-11.8
11,Cc1ccccc1Nc1nc(N)nc(CSc2nncn2C)n1,7.74
12,COC(=O)c1cc(C(=O)NCCC(C)C)cc([N+](=O)[O-])c1,15.2
13,CCc1cc2cc(C)cc(C)c2nc1SCC(=O)N1CCN(C(=O)c2ccco2)CC1,1.54
14,O=[N+]([O-])c1cccnc1N/N=C/c1ccccc1O,8.83
15,CCOc1ccc(C(=O)N2CCN(c3cccc(C)c3C)CC2)cc1,-30.2
16,COc1ccccc1CC(=O)OC(C)C(=O)Nc1ccc(S(=O)(=O)N2CCCCC2)cc1 (stereo not shown),3.48
17,COc1ccc(C)cc1NC(=O)CN(c1ccccc1)S(C)(=O)=O,8.12
18,Cc1cccc(N2CCN(C(=O)c3cc(S(=O)(=O)N4CCCC4)cn3C)CC2)c1C,0.183
19,O=S(=O)(/N=C(\c1ccc(Cl)cc1)N1CCOCC1)c1ccccc1,3.97
20,Cn1cnnc1Sc1ccc(C(=O)NCCC(c2ccccc2)c2ccccc2)cc1[N+](=O)[O-],-39.8
21,O=C(NCC(=O)N(c1ccccc1F)C(C(=O)NC1CCCC1)c1cccnc1)c1ccco1 (stereo not shown),14
22,Cc1cc(C(=O)Nc2ccccc2Cl)c2ccccc2n1,5.07

row,SMILES,"hERG current change (%, negative = inhibition) at 1uM [%]"
1,COc1ccc(OC2C(=O)N(Cc3ccc4c(c3)OCO4)C2c2sccc2C)cc1 (stereo not shown),5.92
2,CN1CC(c2ccccc2)C2(SC(=S)N(Cc3ccco3)C2=O)C12C(=O)Nc1ccccc12 (stereo not shown),6.1
3,COc1cc(C(=O)NCC(=O)N/N=C/c2ccc(OC(=O)c3ccco3)cc2)cc(OC)c1OC,9.58
4,CC(C)CN(C(=O)CN1C(=O)NC2(CCc3ccccc32)C1=O)C1CCS(=O)(=O)C1 (stereo not shown),16.9
5,O=C(c1ccco1)N1CCN(C(=O)C2CC(c3ccc(F)cc3)=NO2)CC1 (stereo not shown),-59.7
6,CC(C)c1nc2oc3c(NCc4ccccn4)ncnc3c2c2c1COC(C)(C)C2,7.37
7,Cc1cc(NC(=O)c2noc3c2CCCC3)no1,-0.965
8,COC(=O)c1ccccc1N/C=C/C(=O)c1ccc(Br)cc1,15.8
9,COc1ccc2c(c1)C(=O)[C@@H](O)[C@H](c1ccc(OC)c(Br)c1)O2,3.75
10,COc1cc2nc(SCc3ccc(C(F)(F)F)cc3)n(Cc3cccs3)c(=N)c2cc1OC,1.51
11,COC(=O)[C@@H](N)CCCN=C(N)N[N+](=O)[O-].Cl,14.8
12,O=C(NCCN1CCN(c2ccccc2F)CC1)C1CCCN(S(=O)(=O)c2cnc[nH]2)C1 (stereo not shown),8.89
13,CC1=C(C(=O)Nc2ccc([N+](=O)[O-])cc2)C(c2cccc(C(F)(F)F)c2)NC(=S)N1c1ccccc1 (stereo not shown),2.79
14,CCOc1ccc(Oc2c(C)oc3cc(O)ccc3c2=O)cc1,6.43
15,Cc1ccc(C(=O)NCc2ccc(F)cc2)cc1NC1=NC2CS(=O)(=O)CC2S1 (stereo not shown),8.39
16,COc1ccc(C(=O)N/C(=C\c2cn(S(=O)(=O)N(C)C)c3ccccc23)C(=O)NCCCN2CCOCC2)cc1,11
17,Cc1ccsc1C(=O)NCCc1ccc(S(N)(=O)=O)cc1,11.2
18,O=C(c1ccc2c(c1)N(Cc1ccccc1F)C(=O)c1ccccc1S2(=O)=O)N1CCCC1,18.8
19,CC(OC(=O)CC1CCCC1)C(=O)Nc1ccc(Cl)cn1 (stereo not shown),7.05
20,Cc1ccc(Cc2nc(-c3ccncc3)no2)cc1,4.95
21,CC(C)(C)CN1CCNC(=O)C1CC(=O)N1CCN(c2ccccc2)CC1 (stereo not shown),8.57
22,C=CCn1c(=NC(=O)CN2C(=O)CCC2=O)sc2cccc(OC)c21,5.41

row,SMILES,"hERG current change (%, negative = inhibition) at 1uM [%]"
1,CCCCn1nnnc1SCC(=O)Nc1ccc(C)cc1,11
2,C=CCN=C1S/C(=C\c2ccc(N(C)C)cc2)C(=O)N1CC=C,12
3,CN(CC(=O)Nc1cccc2ccccc12)c1ccc(S(=O)(=O)N2CCOCC2)cn1,5.96
4,COc1cccc(C(=O)Nc2cccnc2)c1OC,16
5,Cc1ccc(CNC(=O)C2CCN(S(=O)(=O)N3CCOCC3)CC2)cc1,-0.458
6,CCCc1cc(=O)[nH]c(SCC(=O)Nc2oc(C)c3c(C)n[nH]c(=O)c23)n1,17.1
7,CCOC(=O)c1nn(-c2ccc(F)cc2)c2c1CC/C2=C/c1ccccc1,8.74
8,CCCn1c(N)c(C(=O)COC(=O)CNC(=O)c2ccc(C)c(C)c2)c(=O)n(C)c1=O,-42.5
9,CC(=O)c1ccc(NC(=O)C2CC(=O)N(Cc3ccccc3)C2)cc1 (stereo not shown),14.3
10,CSCCC(NC(=O)c1ccccc1Cl)C(=O)NNC(=O)c1csc(N2CCOCC2)n1 (stereo not shown),1.23
11,Cc1ccc(C(=O)Nc2ccccc2Oc2ccccc2)o1,9.29
12,CCN(CC(=O)NC(C)(C)C)C(=O)CCl,5.17
13,NC(=O)CCC(=O)N1CCCC(C(=O)c2ccc3c4c(cccc24)CC3)C1 (stereo not shown),8.27
14,O=C(CNS(=O)(=O)c1cccs1)N1CCN(c2ccccc2F)CC1,9.22
15,CCCc1nc(N)sc1C(=O)OCC,6.02
16,CCCc1cc(C(=O)N/N=C/c2ccc(CC)s2)c2ccccc2n1,-2.38
17,CCOC(=O)/C(C#N)=C/c1cc(C)n(-c2ccc(C)cc2)c1C,13.5
18,CC(C)(C)c1ccc(C(=O)NN=C2CCCC2)cc1,12.4
19,C#CCOC(=O)CN1C(=O)c2cccc3cccc(c23)C1=O,6.29
20,CCC(C)(C)n1nnnc1C(CC(C)C)N1CCC(C(N)=O)CC1 (stereo not shown),7.37
21,CCOc1ccc(-n2c(SCC(=O)Nc3cc(OC)c([N+](=O)[O-])cc3C)nc3ccccc32)cc1,9.24
22,Cc1nn2c(COc3ccc(NC(=O)c4ccccc4)cc3)nnc2c2ccccc12,6.55

row,SMILES,"hERG current change (%, negative = inhibition) at 1uM [%]"
1,COc1cc(-c2nc3ccc4ccccc4c3c3c2CCC3)cc(OC)c1O,5.77
2,O=C(NC(=C(Cl)Cl)P(=O)(c1ccccc1)c1ccccc1)c1ccccc1,12.4
3,COc1ccc(Cc2nnc(SCC(=O)NC3CCCCC3)n2C)cc1,13.3
4,COc1cccc(N2C(=O)C3CCCN3C2=S)c1 (stereo not shown),14
5,O=c1[nH]c(=O)n([C@H]2C[C@H](O)[C@@H](CO)O2)cc1I,12.6
6,CC(=O)Nc1ccc(NC(=O)C(C)OC(=O)/C=C/c2cn(-c3ccccc3)nc2-c2cccnc2)cc1 (stereo not shown),11.2
7,Cc1ccc(CNC(=O)CCCCCNc2nc(=S)[nH]c3ccccc23)cc1,1.76
8,CCC(C)c1ccccc1OCC(=O)NN1C(=O)c2ccccc2C1=O (stereo not shown),8.15
9,CCOP(=O)(OCC)C(Nc1ccccn1)c1ccc(F)cc1 (stereo not shown),13.7
10,O=C(c1ccc(F)cc1)N1CCN(Cc2ccccc2)CC1,10.5
11,Cc1nc2cc(NC(=O)N3c4ccccc4CC3C)ccc2o1 (stereo not shown),5.48
12,O=C(NCC1CCCO1)c1ccc2c(c1)N(Cc1ccc(F)cc1)CCS2 (stereo not shown),15.3
13,CCOC(=O)CNC(=O)N1CCCC(Cc2ccccc2)(C(=O)OCC)C1 (stereo not shown),11.6
14,O=C(CCc1nc2ccccc2[nH]c1=O)N/N=C/c1ccccc1,9.37
15,O=C(CCNC(=O)c1ccccc1Cl)OCC(=O)c1ccccc1,14.9
16,CSCC[C@H](NC(=O)C(C)Oc1ccc(Cl)cc1)c1nc2ccccc2[nH]1 (stereo partly shown),2.43
17,CCCn1nc(NC(=O)c2ccccn2)c2cc3cc(C)ccc3nc21,-3.45
18,O=C(Cc1cccs1)Nc1nc(-c2cccnc2)cs1,5.36
19,CCC(C)NC(=O)c1ccccc1NC(=O)Nc1ccccc1 (stereo not shown),12.1
